Some of the results follow.

For this assay, the target named is T1, MBP-FoxP1dN (Mus musculus, UniProt P58462 326-579).
T1 sequence: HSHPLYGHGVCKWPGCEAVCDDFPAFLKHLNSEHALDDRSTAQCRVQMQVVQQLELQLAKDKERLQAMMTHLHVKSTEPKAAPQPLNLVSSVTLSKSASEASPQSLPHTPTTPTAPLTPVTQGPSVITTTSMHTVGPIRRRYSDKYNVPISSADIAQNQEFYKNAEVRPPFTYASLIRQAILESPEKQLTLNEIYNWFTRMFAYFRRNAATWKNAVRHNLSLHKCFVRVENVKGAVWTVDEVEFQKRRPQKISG
Nature of the assay: PD-seq (MBP pull-down with sequencing); 20 mM Tris-HCl pH 7.5, 100 mM NaCl, 1.5 mM MgCl2, 0.4 uM protein, 0.1 uM dsDNA library, 30 min, room temperature, amylose pull-down; high values mean tight binding. The following applies: protein: recombinant; tags: His6-MBP; chain copies: 2; dsDNA, one strand shown. In outline: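 E. coli-expressed mouse FoxP3 or FoxP1 fragment, N-terminus removed and tagged with His6-MBP, was used at 0.4 µM against 0.1 µM of a Klenow-filled degenerate double-stranded DNA library. After 30 min at room temperature in Tris pH 7.5 buffer with NaCl and MgCl2, complexes were pulled down on amylose resin and washed three times. Binding is pull-down over input reads-per-million enrichment from pooled replicates of the proteinase K-released, PCR-barcoded, Illumina-sequenced DNA.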
As to “GATGATTGTTCTCCCAGCTGATGAATTTAACCTATCGAGTAAACAAATTTTCCTAATCTTTCTGTTCAAGCGCCATCTAC”, the binding signal is 0.851 RPM ratio (pull-down/input).
For the sequence “GATGATTGTTCTCCCAGCTGATGAATTCTCGTCCTCGAGTAAACAAATTTTCCTAATCTTTCTGTTCAAGCGCCATCTAC”, the binding signal was 0.786 RPM ratio (pull-down/input).
The value for “GATGATTGTTCTCCCAGCTGATGAATTCTATACATCGAGTAAACAAATTTTCCTAATCTTTCTGTTCAAGCGCCATCTAC” was 1.08 RPM ratio (pull-down/input); that for “GATGATTGTTCTCCCAGCTGATGAATTATACCCGTCGAGTAAACAAATTTTCCTAATCTTTCTGTTCAAGCGCCATCTAC” was 0.898 RPM ratio (pull-down/input); that for “GATGATTGTTCTCCCAGCTGATGAATTGCAGCCATCGAGTAAACAAATTTTCCTAATCTTTCTGTTCAAGCGCCATCTAC” was 1.1 RPM ratio (pull-down/input).
The value for “GATGATTGTTCTCCCAGCTGATGAATTAGACCTCTCGAGTAAACAAATTTTCCTAATCTTTCTGTTCAAGCGCCATCTAC” was 0.791 RPM ratio (pull-down/input); that for “GATGATTGTTCTCCCAGCTGATGAATTTGAGAGTTCGAGTAAACAAATTTTCCTAATCTTTCTGTTCAAGCGCCATCTAC” was 0.826 RPM ratio (pull-down/input).
The same measure for “GATGATTGTTCTCCCAGCTGATGAATTGCCGGGCTCGAGTAAACAAATTTTCCTAATCTTTCTGTTCAAGCGCCATCTAC”: 0.798 RPM ratio (pull-down/input); for “GATGATTGTTCTCCCAGCTGATGAATTGGTGCTGTCGAGTAAACAAATTTTCCTAATCTTTCTGTTCAAGCGCCATCTAC”: 1.15 RPM ratio (pull-down/input).
Turning to “GATGATTGTTCTCCCAGCTGATGAATTAGATCGTTCGAGTAAACAAATTTTCCTAATCTTTCTGTTCAAGCGCCATCTAC”, the binding signal was 0.973 RPM ratio (pull-down/input).
The same measure for “GATGATTGTTCTCCCAGCTGATGAATTGTCTTGGTCGAGTAAACAAATTTTCCTAATCTTTCTGTTCAAGCGCCATCTAC”: 0.917 RPM ratio (pull-down/input); for “GATGATTGTTCTCCCAGCTGATGAATTAGTAACTTCGAGTAAACAAATTTTCCTAATCTTTCTGTTCAAGCGCCATCTAC”: 1.08 RPM ratio (pull-down/input).
The same measure for “GATGATTGTTCTCCCAGCTGATGAATTTTTCCAGTCGAGTAAACAAATTTTCCTAATCTTTCTGTTCAAGCGCCATCTAC”: 0.889 RPM ratio (pull-down/input); for “GATGATTGTTCTCCCAGCTGATGAATTTTCCTGGTCGAGTAAACAAATTTTCCTAATCTTTCTGTTCAAGCGCCATCTAC”: 0.82 RPM ratio (pull-down/input); for “GATGATTGTTCTCCCAGCTGATGAATTGCTATGCTCGAGTAAACAAATTTTCCTAATCTTTCTGTTCAAGCGCCATCTAC”: 1.01 RPM ratio (pull-down/input).
Regarding “GATGATTGTTCTCCCAGCTGATGAATTTTAAATGTCGAGTAAACAAATTTTCCTAATCTTTCTGTTCAAGCGCCATCTAC”, the binding signal was 0.957 RPM ratio (pull-down/input).
Regarding “GATGATTGTTCTCCCAGCTGATGAATTTTATAAGTCGAGTAAACAAATTTTCCTAATCTTTCTGTTCAAGCGCCATCTAC”, the binding signal was 0.919 RPM ratio (pull-down/input).
The value for “GATGATTGTTCTCCCAGCTGATGAATTGACCAATTCGAGTAAACAAATTTTCCTAATCTTTCTGTTCAAGCGCCATCTAC” was 1.14 RPM ratio (pull-down/input); that for “GATGATTGTTCTCCCAGCTGATGAATTAAGTTCTTCGAGTAAACAAATTTTCCTAATCTTTCTGTTCAAGCGCCATCTAC” was 0.916 RPM ratio (pull-down/input).
“GATGATTGTTCTCCCAGCTGATGAATTTGCCCAATCGAGTAAACAAATTTTCCTAATCTTTCTGTTCAAGCGCCATCTAC”: the binding signal was 1.06 RPM ratio (pull-down/input).
The value for “GATGATTGTTCTCCCAGCTGATGAATTGCAACGGTCGAGTAAACAAATTTTCCTAATCTTTCTGTTCAAGCGCCATCTAC” was 1.11 RPM ratio (pull-down/input); that for “GATGATTGTTCTCCCAGCTGATGAATTAGACAACTCGAGTAAACAAATTTTCCTAATCTTTCTGTTCAAGCGCCATCTAC” was 1.16 RPM ratio (pull-down/input); that for “GATGATTGTTCTCCCAGCTGATGAATTATGTAAATCGAGTAAACAAATTTTCCTAATCTTTCTGTTCAAGCGCCATCTAC” was 1.47 RPM ratio (pull-down/input).
The value for “GATGATTGTTCTCCCAGCTGATGAATTGATCGGCTCGAGTAAACAAATTTTCCTAATCTTTCTGTTCAAGCGCCATCTAC” was 0.783 RPM ratio (pull-down/input); that for “GATGATTGTTCTCCCAGCTGATGAATTCCAAACCTCGAGTAAACAAATTTTCCTAATCTTTCTGTTCAAGCGCCATCTAC” was 0.78 RPM ratio (pull-down/input); that for “GATGATTGTTCTCCCAGCTGATGAATTAGGCAAATCGAGTAAACAAATTTTCCTAATCTTTCTGTTCAAGCGCCATCTAC” was 1.1 RPM ratio (pull-down/input).
The same measure for “GATGATTGTTCTCCCAGCTGATGAATTTCAATAGTCGAGTAAACAAATTTTCCTAATCTTTCTGTTCAAGCGCCATCTAC”: 0.89 RPM ratio (pull-down/input); for “GATGATTGTTCTCCCAGCTGATGAATTCGTGTGCTCGAGTAAACAAATTTTCCTAATCTTTCTGTTCAAGCGCCATCTAC”: 0.9 RPM ratio (pull-down/input).
On to “GATGATTGTTCTCCCAGCTGATGAATTTCGCCTATCGAGTAAACAAATTTTCCTAATCTTTCTGTTCAAGCGCCATCTAC”, for which the binding signal is 0.843 RPM ratio (pull-down/input).
The same measure for “GATGATTGTTCTCCCAGCTGATGAATTGAACAGTTCGAGTAAACAAATTTTCCTAATCTTTCTGTTCAAGCGCCATCTAC”: 0.869 RPM ratio (pull-down/input); for “GATGATTGTTCTCCCAGCTGATGAATTAACGTAGTCGAGTAAACAAATTTTCCTAATCTTTCTGTTCAAGCGCCATCTAC”: 0.937 RPM ratio (pull-down/input).

These data come from paper PMC12820563, “FoxP3 forms a head-to-head dimer in vivo and stabilizes its multimerization on adjacent microsatellites”.
